Measured values: PubChem BioAssay AID686970 (National Center for Advancing Translational Sciences (NCATS), 2013)
The campaign covered roughly 360,000 compounds. About 6,000 (1.7%) were called active. Inconclusive results, whose numbers are uncertain, are shown with a selection of clear calls. The call rests on the fitted dose curve; in most records, active means well fitted cell-killing curve with a large enough effect; inconclusive means small, poorly fitted or top-dose-only effect, or effect the other way; inactive means flat fitted curve, though single readings scatter. Potencies of inconclusive entries are left out as doubtful fits.

Assay: qHTS for induction of synthetic lethality in tumor cells producing 2HG: qHTS for the HT-1080-NT fibrosarcoma cell line;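 further: NT is the 2HG producing partner of a matched IDH1 knockdown line; nearly all actives have a fitted effect of over 55% in size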;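 on activity, negative = less viability: 0% = DMSO-treated cells and -100% = media-only wells without cells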
Conditions: HT-1080-NT fibrosarcoma viability, CellTiter-Glo ATP luminescence, 48 h; activity, negative = less viability: at 46.1 µM (top of the series) unless noted
How it was run: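 Viability of the 2HG-overproducing fibrosarcoma line after 48 hours of compound exposure at 37 degrees C was determined by luminescence with CellTiter-Glo, and concentration-effect curves were then fitted and categorized.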
Potency means the concentration at half of the fitted maximal effect; tags describe the fitted curve by direction and shape.

| Compound | Potency | activity, negative = less viability |
| --- | --- | --- |
| CCOC(CNC(=O)c1ccc(CNC(=O)c2ccc(OC)c(OC)c2)cc1)OCC | inconclusive [rising, single point] | – |
| CCCCC[C@@H](C)N1C[C@@H](COCc2ccccc2)Oc2cc(N3CC[C@H](O)C3)ccc2S1(=O)=O | inconclusive [cytotoxic, single point] | – |
| O=C(CN1CCN(C(=O)c2ccco2)CC1)Nc1cccc([N+](=O)[O-])c1 | inactive | – |
| O=C(NCc1ccccc1)C1=C[C@H](C2CC2)C[C@H](OCCCCO)O1 | inconclusive [rising, single point] | – |
| CC(C)NC(=O)C1(C#N)C=C1c1ccccc1 (stereo not given) | active: 16.4 µM | – |
| Oc1ccc(C23CCCC2C2(CCCC2)c2ccc(O)cc2O3)c(O)c1 (stereo not given) | inconclusive [cytotoxic, single point] | – |
| CCOc1ccc(-c2[nH]ncc2Oc2ccccc2OC)c(O)c1 | inconclusive [cytotoxic, single point] | – |
| C=CC[C@H](CC(=O)N(CCO)Cc1ccccc1)C(=O)N[C@@H](COC(=O)[C@H](CC=C)CC(=O)OC(C)(C)C)Cc1c[nH]c2ccccc12 | inconclusive [cytotoxic, single point] | – |
| CCc1ccc(-c2cc(C(F)(F)F)n3nc(C(=O)Nc4cnn(Cc5ccc(C)cc5)c4)cc3n2)s1 | – | inconclusive: 3.82% [cytotoxic] |
| Cc1cc(C)cc(OCC(=O)N2N=C(C(F)(F)F)CC2(O)C(C)(C)C)c1 (stereo not given) | active: 18.4 µM | – |
| CN(C)c1cc[n+](CC(=O)c2cccs2)cc1 | inactive | – |
| COc1cc2c(cc1N)-c1ccc(N)cc1C2=O | inactive | – |
| C#CC[N+](C)(C)CC#Cc1ccc(Cl)cc1 | inconclusive [cytotoxic, single point] | – |
| COc1ccc(N=Nc2c(C)[nH]c3ccccc23)cc1 | inconclusive [cytotoxic, partial curve] | – |
| O=c1cc(-c2ccccc2)[nH]n1-c1nc2ccccc2s1 | inconclusive [cytotoxic, single point] | – |
| COc1ccc(CNC(=O)CCNC(=O)C2CCN(S(=O)(=O)c3ccc(OC)cc3)CC2)cc1 | inactive | – |
| CCOC(=O)Nc1ccc2nc(-c3cscn3)[nH]c2c1 | inconclusive [cytotoxic, single point] | – |
| Cc1cccc(N2CCN(C(=O)C3CCN(S(=O)(=O)c4cccnc4)CC3)CC2)c1C | inactive | – |
| COc1ccc(N2CCN(Cc3nc4sc(C)c(C)c4c(=O)[nH]3)CC2)cc1 | inactive | – |
| Cn1c(N=Nc2ccc(N3CCOCC3)cc2)[n+](C)c2ccccc21 | inconclusive [cytotoxic, single point] | – |
